This is an account of results in ChEMBL document CHEMBL1201862, “PubChem BioAssay data set” (2004).

Structures are written as SMILES. Where “and” joins values, the source holds several entries; their conditions need not be identical. Equal values may be shown once.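 Dose response: 5 concentrations. Exposure: 48 h. Format: 96-well plates. Endpoint: linear interpolation; highest concentration if not reached. GI50 marks 50% less growth.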 Calls of active or inactive are those of the source. No stated cut-off is given here; in the data, active = GI50 up to about 1.1 µM and inactive = higher.

The subject of this assay is NCI-H322M. The assay can be described thus: NCI-60 cell line screen, 48 h.
For `Cc1nc2cc(Nc3ccccc3C(=O)O)ccc2s1`, the GI50 was inactive: > 100 µM. `Cc1c(CNc2ccc(C(=O)NC(CC(=O)O)C(=O)O)cc2)ccc2nc(N)nc(N)c12` (centres undefined): the GI50 was active: 0.247 µM.

Turning to `CC(C)(C)c1c2c(c(C(C)(C)C)c3c1OCN(Cc1ccccc1)C3)OCN(Cc1ccccc1)C2`, the GI50 is inactive: 19 µM. As for `C#CC1(O)C(COP(=O)(O)OC(COCCCCCCCCCCCCCCCCCC)COP(=O)(O)OCC2OC(n3cc(F)c(=O)[nH]c3=O)CC2O)OC(n2ccc(N)nc2=O)C1O` (centres undefined), the figure is active: 355 nM and active: 610 nM; as for `N#C/C(=C/Sc1ccccc1)C(=O)O`, inactive: 30.3 µM; as for `CCC12CCCN(Cc3ccccc3)C1c1c(n(C)c3ccccc13)[C@H](C(=O)OC)C2` (some centres undefined), inactive: 92.5 µM. As for `CN1c2ccccc2N(C(=O)c2ccccc2)C(CC(=O)O)c2cccn21` (centres undefined), the figure is inactive: > 100 µM; as for `COc1ccc(/C(CC2OC(=O)c3ccccc32)=N\NC(=O)C[N+](C)(C)C)cc1` (centres undefined), inactive: 36.2 µM; as for `Cc1c(C)c(S(=O)(=O)N(CCCCN)OCCCN)c(C)c2c1OC(C)(C)CC2`, inactive: 15.4 µM. For the compound `C=CCNC(=S)N/C=C(/C(C)=O)C(=O)Nc1ccccc1C`, the GI50 is inactive: > 100 µM. Take `CCCCCCCCCCOC(=O)c1cc[n+](C)cc1`: the GI50 was inactive: 17.7 µM.

`Nc1nc2c(=O)c3ccccc3sc2s1`: the GI50 is inactive: 68.7 µM.

With `CCOC(=O)NC(OC)(C(F)(F)F)C(F)(F)F`, the GI50 is inactive: > 100 µM. As for `COc1ccc2c(c1)C1c3ccccc3CCN1CCC2` (centres undefined), the figure is inactive: 47.1 µM; as for `O=C1C(N2CCOCC2)=C(Cl)C(=O)c2ncccc21`, inactive: > 10 µM. As for `N#CCN1CCCN(CC#N)CCN(CC#N)CCCN(CC#N)CC1`, the figure is inactive: > 100 µM; as for `CC1=NN(c2cccc(Cl)c2)C2(SCC(=O)N2c2nc3ccccc3s2)/C1=C\c1ccccc1O` (centres undefined), inactive: 25.3 µM.

Turning to `Cc1ccc(S(=O)(=O)c2scc(-c3ccccc3)c2C)cc1`, the GI50 is inactive: > 100 µM. Consider `Cc1ccc(-c2nnc(-c3nn(-c4ccccc4)c4nc5ccccc5nc34)o2)cc1`, for which the GI50 is inactive: 30.4 µM. With `C=C(C)C(=O)OC1CC2(C)OC2CC(OC(C)=O)/C(C)=C/C2OC(=O)C(=C)C21` (centres undefined), the GI50 is inactive: 16.2 µM.

Consider `CC(NC(=O)C(C)C(=O)NCc1ccc(C(F)(F)F)cc1)C(N)=O` (centres undefined), for which the GI50 is inactive: > 100 µM. Turning to `CC(=O)OCCOCNC(=S)N/N=C/c1ccc2ccccc2n1`, the GI50 was inactive: 30.6 µM. As to `C[C@H](NC(=O)C(C)(Cc1ccc(O)cn1)NC(=O)c1ccccc1)c1ccccc1` (some centres undefined), the GI50 is inactive: > 100 µM. Under `CC1(C)CC(=O)c2c(nc3c(ccc4ccccc43)c2-c2ccc(NC(=O)CCC(=O)Nc3ccc(-c4c5c(nc6c4ccc4ccccc46)CC(C)(C)CC5=O)cc3)cc2)C1` stands inactive: > 100 µM; under `O=C(/C=C/c1ccc(OCCCOc2ccc(/C=C/C(=O)c3ccccc3)cc2)cc1)c1ccccc1`, inactive: > 100 µM. Under `Cc1ccc(NCC(=O)N2CC(=O)Nc3ccccc32)c(C)c1` stands inactive: > 100 µM; under `COc1cccc(Nc2nc(NNC(=O)Cc3ccccc3)nc(NNC(=O)c3ccncc3)n2)c1`, inactive: > 10 µM; under `Cc1cc2nc3c(C#N)c4c(c(Cl)n3c2cc1C)CCC4`, inactive: > 100 µM.

Regarding `Clc1ccc(Cc2nc3ccccc3nc2-c2cccc(Br)c2)cc1`, the GI50 is inactive: 16 µM. Under `CCN(CC)C(=S)SC(=S)N(CC)CC` stands inactive: 69.3 µM; under `COC1(CC[C@H](C)COC2OC(CO)C(O)C(O)C2O)O[C@H]2C[C@H]3[C@@H]4CC=C5C[C@@H](OC6OC(CO)C(OC7OC(C)C(O)C(O)C7O)C(O)C6OC6OC(C)C(O)C(O)C6O)CC[C@]5(C)[C@H]4CC[C@]3(C)[C@H]2[C@@H]1C` (some centres undefined), inactive: 3.59 µM; under `O=C(O)CCC(NC(=O)c1ccc(Nc2cnc3cc(C(F)(F)F)ccc3n2)cc1)C(=O)O` (centres undefined), inactive: > 100 µM. As for `FC(F)(F)c1ccc(C2=N/S(c3ccccc3)=N\C(c3ccc(C(F)(F)F)cc3)=N/S(c3ccccc3)=N\2)cc1` (centres undefined), the GI50 is inactive: > 100 µM.

In the case of `COC(=O)[C@]1(Cc2ccc3ccccc3c2)CCCCCCN1C(=O)c1ccccc1`, the GI50 is inactive: > 38.2 µM. With `CC(C)(C)[Si](C)(C)OCC1OC(n2ccc(=O)[nH]c2=O)C(O[Si](C)(C)C(C)(C)C)[C@@]12O[C@H]2C(N)=O` (some centres undefined), the GI50 is inactive: 19.1 µM. In the case of `CCCC(CCN)(CCN)[N+](=O)[O-]`, the GI50 was inactive: > 100 µM. Take `Cc1c[n+]2c3ccccc3c3ccccc3c2s1.[O-][Cl+3]([O-])([O-])[O-]`: the GI50 is inactive: 9.89 µM. `C=CC[C@@]1([C@H](C=C)COCc2ccc(OC)cc2)CC[C@]2(C)OC(C)(C)[C@@H](c3ccccc3)N2C1=S`: the GI50 is inactive: > 100 µM. Under `CC(CCOc1c2ccoc2cc2oc(=O)ccc12)C1=CC(=O)C(C)(C)O1` (centres undefined) stands inactive: > 100 µM; under `COC(=O)Cc1c(-c2c(CC(=O)OC)c3ccccc3n2C2OC(COC(C)=O)C(OC(C)=O)C(OC(C)=O)C2OC(C)=O)[nH]c2ccccc12` (centres undefined), inactive: > 100 µM; under `COc1ccccc1C1(c2c(OC)c(=O)c2=O)SCCCS1`, inactive: > 100 µM. Regarding `CC(=O)Oc1ccc(C)c2c1[C@H]1CC[C@]3(C)[C@@H](OC(C)=O)CC[C@H]3[C@@H]1CC2`, the GI50 is inactive: 17.7 µM. Under `CN(C)CCCOC(=O)C(c1ccccc1)C1(O)CCSCC1` (centres undefined) stands inactive: > 100 µM; under `COc1ccc(C2CCc3c(cnc4nc(N)nc(N)c34)C2)cc1` (centres undefined), inactive: 28.2 µM. Take `COc1cccc2c1C(=O)c1c(O)c3c(c(O)c1C2=O)CC(O)(C(C)=O)CC3O` (centres undefined): the GI50 is inactive: 5.83 µM. As for `CC1=CC(=O)c2ccc3c4ccccc4n(C)c3c2C1=O`, the figure is inactive: 62.2 µM; as for `O=C(/N=C1\SCCN1C(=O)C(C(F)(F)F)C(F)(F)F)C(C(F)(F)F)C(F)(F)F`, inactive: > 100 µM.

For the compound `Cc1nc2ccccc2c(=O)n1/N=C(\N=N\c1ccccc1)c1ccccc1Cl`, the GI50 was inactive: > 100 µM.

As for `CCCCCOP(=O)(OCCCCC)C(NC(C)=O)(C(=O)OCC)C(F)(F)F` (centres undefined), the GI50 was inactive: > 100 µM.

`COC(=O)[C@@H](OC(C)=O)[C@@H](OC(C)=O)c1nnc2ccc(Cl)nn12`: the GI50 is inactive: > 100 µM.

As to `COC(OC)C1(c2ccccc2)Oc2ccccc2C1=O` (centres undefined), the GI50 was inactive: > 100 µM. With `CC(C)C1=CC23CCC4C(C)(C(=O)O)CCCC4(C)C2CC1C1C(=O)N(c2ccccc2N2C(=O)C4C5CC6C7(C)CCCC(C)(C(=O)O)C7CCC6(C=C5C(C)C)C4C2=O)C(=O)C13` (centres undefined), the GI50 is inactive: 3.21 µM.

As for `COc1cc2c(cc1OC)[C@@H](Nc1ccc(F)cc1)C1COC(=O)[C@@H]1C2c1cc(OC)c(O)c(OC)c1` (some centres undefined), the GI50 was inactive: 76 µM. Consider `NC(Cc1ccc(B(O)O)cc1)C(=O)NC(CO)CO` (centres undefined), for which the GI50 was inactive: > 100 µM.
